Laboratory results reported in the supplement of paper PMC11417369.
The list shows a part of the results.

Test system: PfAP2-HC AP2 domain (GST-tagged)
Experiment: gcPBM binding intensity (ln(normalized median fluorescence intensity)); higher = stronger DNA binding
Outline: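 Binding intensity values are the highest Masliner-normalised natural-log median intensity among replicate spots of either probe orientation. The binding step lasted 1 h in 1× PBS with 1% milk, 0.2 mg/ml BSA, 0.5% salmon testes DNA and 0.03% Triton X-100, using GST-tagged P. falciparum DNA-binding domains expressed in E. coli on an Agilent 4 × 180k array of primer-extended double-stranded 36-bp intergenic genomic probes plus negative controls. Alexa488 anti-GST antibody and a 488 nm scan detected bound protein.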

| Sequence | gcPBM binding intensity (ln) |
| --- | --- |
| TTTTTTTTTTTTTTTTATTTATATATATATATATAT [CACACA_negctrl_site582] | 9.5 |
| AAAAAAAATGAAAGGTGTACACATACAAACATAGAA [XGTACX_site3517] | 10.3 |
| TAATTTAGATATATAAAGAATTAAAGTTAACATTCT [CACACA_negctrl_site726] | 9.41 |
| TTTTTCAGATCCTATATAGTATCATATAAATTCCAT [CACACA_negctrl_site56] | 9.39 |
| TTAAGAAAAAAAAAAAGTACACACATATAATATATA [XGTACX_site6268] | 9.83 |
| CGTTGGTATTAAAAGGTGCAATGAAATAATATATTA | 9.55 |
| AAGATCGCATGAAATGAACACACATAAAAAAAATAT [CACACA_site9353] | 10.1 |
| AATGTAACAACTTTTTGTACTTAAGAAATAATAAAT [XGTACX_site3310] | 9.48 |
| TAAAAAATTATATTCACACACATACCCATATATATA [CACACA_site4458] | 10.5 |
| TAAAATTTATAAACTACACACATATATATAGTAATA [CACACA_site3728] | 9.77 |
| CACAAAATAAATTAAACACACAACATCATAGATGTA [CACACA_site4619] | 9.95 |
| AATTTTTATTTGTACACACATACATATATATTATAT [CACACA_site993] | 10 |
| TTTTTATTTACACTTTTTATTTATATATTATGTACG [CACACA_negctrl_site158] | 9.74 |
| TGTCATCATCTTAAATGTACAAAAAGGAAATATAAA [XGTACX_site1529] | 9.47 |
| TTTATATATTTCATAATACACACGAAAAAAAAAAAA [CACACA_site2970] | 9.59 |
| ATAAATAATATAAATACACACTAAAAAAAATATATA [CACACA_site4456] | 9.88 |
| ATATAATCAGCTTCTCTTTTATGCTAAAAAAAAAAA [CACACA_negctrl_site1310] | 9.34 |
| TTAGTTTATTGGTACTGTACTTTTTTTTTCTCCATT [XGTACX_site8618] | 9.64 |
| TATCATATATGAAGGTGTACGATTTATTATATAAAT [XGTACX_site7010] | 9.56 |

| Sequence | gcPBM binding intensity (ln) |
| --- | --- |
| ATTTTTGAACGGTACAGTACAGAATTTAATTAACCC [XGTACX_site47] | 9.6 |
| TTGCATTACGAACATACACACAGAATAACTGAAAAC [CACACA_site3025] | 9.84 |
| TTCGATGAATATACAAGTACATATCCTTACGAACTG [XGTACX_site1650] | 9.45 |
| TTTTTATTAAGACATGCATGGAAACGCACTATTTTA [TGCATGCA_site999] | 9.61 |
| ATACGAAGTACGTACACACACTTATATGTTACTAAA [CACACA_site7812] | 10.3 |
| TATATATGCATTAAATGATGTTCCTGTTTTTTAAAA [CACACA_negctrl_site1378] | 9.51 |
| TTTATATCATTTCTTAAAAAAAAGGAGGTAATAGAC [TGCATGCA_negctrl_site555] | 9.68 |
| AATAAATAAATATATACACACATATATGTCTACATA [CACACA_site3158] | 10.1 |
| AAGTTACAGAATATCACACATAAATTATCTGTATAT [CACACA_site5116] | 9.62 |
| GTTAAGCAATATATATGTACTTATGGAATAGAAAAA [XGTACX_site3693] | 9.64 |
| TCAATTAATTATTTTTGTACACAAGAATTACTGAAT [XGTACX_site6401] | 9.61 |
| GTGTGATATAATTTTTTTAGAGCTTTATAATATTAT [CACACA_negctrl_site233] | 9.61 |
| TATGTTGATGATATTACACACCCAATGAGAAAAGGA [CACACA_site7060] | 9.82 |
| CAACCATTTGTAGGTAAACACACATTATTATTAATA [CACACA_site8842] | 9.7 |
| TGTTTATACATCAGGTGTACGCAAAATAATTGTATG [XGTACX_site206] | 9.63 |
| TTTATTTACTATTAAAGTACTAAATCATATAATTAT [XGTACX_site2580] | 9.62 |
| TATACATATACATATACACACACACCCATAAATAAA [CACACA_site8372] | 10.6 |
| TTAACACATGCTTGGTCACACACGTATGCATATTTA [CACACA_site2127] | 9.97 |
| TTTGTCAAATAATATTGTACTAAAAAATTTTGCCTT [XGTACX_site7485] | 9.41 |

| Sequence | gcPBM binding intensity (ln) |
| --- | --- |
| TATTTGTAATATAACACACACAAAAAAAGACTCGGA [CACACA_site1681] | 10.3 |
| ATACACACAGCCTAAACATGCATATAGAAAAAAGAA [TGCATGCA_site1028] | 10.2 |
| TTTTTTTTTTTTTTATGTACTAAAAAATGAAAAATA [XGTACX_site6812] | 9.06 |
| AAATACTTAACATTGGTGCATATTTGTAAAATTATT [GTGCAC_site9515] | 9.68 |
| TTTTGGCTTCTAATATTATACAAAATGGTAAGGAAA [TGCATGCA_negctrl_site169] | 9.37 |
| AGAATACAAAATTGCACACATATTGTGAAAATGTTA [CACACA_site4005] | 10 |
| ATGCAATAATAATATTGTACGCATATATTTTTTACT [XGTACX_site3384] | 9.64 |
| AAAAAAAAAAAAAAAACACACACATATATATAATAT [CACACA_site9038] | 10.3 |
| TTATTTATTTATTGGGTGCACTTGATTTAAATATGC | 9.53 |
| AATACATCATTAAAATGTACATATATATATACATTA [XGTACX_site132] | 9.61 |
| ATTATAATAATGTGATGTACATTAATTGTCTTCCTA [XGTACX_site5404] | 9.67 |
| GAAATAAGGGTTATTTCACACATTGCATGTATTTTC [CACACA_site5752] | 9.72 |
| ATATATATTAATTTTGTGCACAAATGGAAATGTTTG [GTGCAC_site9971] | 9.68 |
| TTTTTTAAATGTCATTGTACATAATTCAATATATAA [XGTACX_site5] | 9.39 |
| AGCTAATATATCTTATATTCATATAAAAAAATATAT [CACACA_negctrl_site1786] | 9.41 |
| TGACTTTTTTTATGTTGTACTTATTATAAAAAAAAT [XGTACX_site7736] | 9.11 |
| TTATAAAATATTTTTTGTACACATAATAGTAAGACT [XGTACX_site933] | 9.43 |
| AATACATGCTTATTTTAACACACAAATGGTAGTAAT [CACACA_site8154] | 9.83 |
